# Source: PubChem BioAssay AID463173 (ICCB-Longwood Screening Facility, Harvard Medical School, 2010)
# The whole screen tested about 52,000 compounds, of which about 1,700 (3.3%) were called active. No stated cut-off is given here; in the data, active means survival mostly below about 52% (no sharp cut-off); inactive means mostly above about 56%. The list shows a part of the results.
# Tested on: Wild type
# Test: S. aureus survival, RN4220 and DeltatarO strains – OD600, teichoic acid synthesis inhibitors, primary screen (AID 463173)
# Settings: S. aureus RN4220 wild type/DeltatarO growth, OD600, 18 h, stronger effect = lower value, screened at 18.75 µg/mL (by protocol)
row,SMILES,survival
1,COc1ccc(CCNC(=O)c2c(O)nc3c(C)cccn3c2=O)cc1OC,inactive: 89%
2,CCn1c(CN2CCCCC2)nc2cc(NC(=O)COc3ccccc3C(C)(C)C)ccc21,inactive: 122%
3,Cc1coc2c1c(C)cc1oc(=O)c(CC(=O)NCCc3ccc(Cl)cc3)c(C)c12,inactive: 87%
4,O=C(Cn1c(SCC(=O)N2CCc3ccccc32)nc2ccccc21)NC1CC1,inactive: 107%
5,Cc1c(C(=O)NCc2ccccc2)oc2ccc(S(=O)(=O)N3CCC(C)CC3)cc12,inactive: 65%
6,O=C(NCCc1ccc(Cl)cc1)C(=O)NCC(c1ccco1)S(=O)(=O)c1ccccc1 (configuration not stated),inactive: 133%
7,Cc1ccc(NC(=O)C(=O)NCC(c2cccnc2)N2CCN(C)CC2)cc1 (configuration not stated),inactive: 87%
8,COc1ccc(N2CCN(C(=O)CSc3nc4ccccc4nc3Cc3ccc(Cl)cc3)CC2)cc1,inactive: 88%
9,COc1ccc(N2CCN(C(=O)c3cc(-c4ccc(C)c(F)c4)on3)CC2)cc1,inactive: 106%
10,Cc1c(C(=O)NCCc2ccc(Cl)cc2)cccc1-n1cnc2cccnc21,inactive: 80%
11,COc1ccc(NC(=O)c2c(N)c(C(=O)c3ccc(OC)cc3)n3ccccc23)cc1,inactive: 103%
12,CCOC(=O)c1cc2sccc2n1CC(=O)N1CCCC1,inactive: 106%
13,CCn1c2ccccc2c2cc(CN3CCN(Cc4ccc(OC)c(OC)c4)CC3)ccc21,active: 14%
14,CCOc1ccc(CC(=O)NCCS(=O)(=O)N2CCN(c3ccc(OC)cc3)CC2)cc1,inactive: 70%
15,COc1ccc(-c2[nH]c(-c3ccccc3)nc2SCC(=O)NC2CCCC2)cc1,inactive: 80%
16,COc1ccc(CCNC(=O)c2cc3c(=O)n(C)c4cc(Cl)ccc4c3s2)cc1OC,inactive: 69%
17,CCC1CN(C(=O)NCc2cccc(OC)c2)c2ccccc2O1 (configuration not stated),inactive: 84%
18,O=S1(=O)c2ccccc2N(Cc2ccccc2Cl)c2ccccc21,inactive: 80%
19,COc1ccc(Nc2nc(N)nc(CSc3nc4ccccc4s3)n2)cc1,inactive: 35%
20,COc1cccc(NC(=O)C(=O)NCCc2sc(-c3cccc(C)c3)nc2C)c1,inactive: 129%
21,CCN1C(=O)c2ccccc2Sc2ccc(NC(=O)Nc3ccc(Br)c(C)c3)cc21,inactive: 82%
22,COc1ccc(-c2cc(NCc3ccc(C)cc3)n3cnnc3n2)cc1,inactive: 112%

row,SMILES,survival
1,Cc1ccc(-c2ccc(=O)n(CC(=O)NC(C)c3ccccc3)n2)cc1 (configuration not stated),inactive: 88%
2,O=C(O)CN1C(=O)/C(=C\c2ccccc2)SC1=S,inactive: 102%
3,Cc1ccccc1NC(=O)Cn1c(=O)n(CCCCC(=O)NCc2ccccc2Cl)c(=O)c2ccccc21,inactive: 101%
4,CCOC(=O)c1c(S(=O)(=O)N2CCC(C(=O)Nc3cccc(C#N)c3)CC2)c(C)n(C)c1C,inactive: 115%
5,Cc1c(C(=O)OC2CCCCCC2)[nH]c2c1C(=O)CC(c1ccccc1Cl)C2 (configuration not stated),inactive: 95%
6,CCN(CC)S(=O)(=O)c1ccc(C(=O)NC2CC(=O)N(c3ccc4c(c3)OCCO4)C2)cc1 (configuration not stated),inactive: 74%
7,O=C(CN1C(=O)COc2ccc(S(=O)(=O)Nc3ccccc3)cc21)NCc1ccccc1Cl,inactive: 73%
8,O=C(CSc1nc2c(c(=O)[nH]1)CN(Cc1ccc(F)cc1)CC2)Nc1cccc(C(F)(F)F)c1,inactive: 59%
9,COc1ccc(NC(=O)Cn2c(=O)n(CCc3ccccc3)c(=O)c3sc4ccccc4c32)cc1,inactive: 87%
10,Cc1cc(C)nc(-n2nc(C)c3c2NC(=O)CC3c2ccccc2OC(C)C)n1 (configuration not stated),inactive: 82%
11,CCOC(=O)c1ccc(N2C(=O)c3[nH]nc(-c4ccccc4)c3C2c2cccs2)cc1 (configuration not stated),inactive: 129%
12,COc1ccc(CCNc2nc(SCc3ccccc3Cl)nc3ccccc23)cc1OC,inactive: 99%
13,COc1cc(Cl)c(NS(=O)(=O)c2ccc3[nH]c(=O)ccc3c2)c(OC)c1,inactive: 66%
14,CCC1CCCCN1C(=O)Cn1c(=O)n(-c2ccccc2C(F)(F)F)c(=O)c2c(C)c(C(=O)N(C)C)sc21 (configuration not stated),inactive: 77%
15,Cc1ccc(C)c(NC(=O)C2CCCN(S(=O)(=O)c3cccc4nsnc34)C2)c1 (configuration not stated),inactive: 74%
16,COc1ccc(C2CC(=O)c3c([nH]c(C(=O)OC4CCCC4)c3C)C2)cc1OC (configuration not stated),inactive: 133%
17,CCOc1ccc(OCC)c(NC(=O)CN(c2ccc(C)cc2)S(=O)(=O)c2c(C)n[nH]c2C)c1,inactive: 42%
18,CCOc1ccc(NC(=O)C(CC)n2nc(-c3ccc(C)c(C)c3)ccc2=O)cc1 (configuration not stated),inactive: 79%
19,N#CC1C(C#N)N2CCCN2C1c1ccc(Cl)cc1 (configuration not stated),inactive: 108%
20,Cc1ccc(NC(=O)Cn2c(=O)n(Cc3nc(-c4ccccc4)no3)c(=O)c3cc4c(cc32)OCO4)cc1C,inactive: 85%
21,COc1ccccc1N1CCN(C(c2ccccc2)c2nnc(-c3ccccc3Cl)o2)CC1 (configuration not stated),active: 0%
22,CCCNC(=O)c1cc2n(n1)CCCN(Cc1ccc(F)cc1)C2=O,inactive: 79%

row,SMILES,survival
1,O=C(c1ccc2c(c1)N(Cc1ccccc1F)C(=O)c1ccccc1S2(=O)=O)N1CCCCCC1,inactive: 85%
2,COc1cccc(C(=O)c2sc(Nc3ccc(C)cc3C)c(S(=O)(=O)c3ccccc3)c2N)c1,inactive: 94%
3,COc1ccc(-c2csc3ncnc(Nc4ccc(OC)c(OC)c4)c23)cc1,inactive: 88%
4,CCOc1ccc(CCNC(=O)c2ccc(Cn3c(=O)c4cccn4c4cccnc43)cc2)cc1,inactive: 116%
5,Cc1cc(N2CCCCC2)nc2ccc(NC(=O)CCC(=O)N3CCN(c4cccc(Cl)c4)CC3)cc12,inactive: 62%
6,CCN(C(=O)Cn1c(SCc2ccccc2F)nc2cccnc21)c1ccccc1,inactive: 95%
7,CCOC(=O)c1sc(N2C(=O)c3oc4ccc(F)cc4c(=O)c3C2c2cccc(OC)c2)nc1C (configuration not stated),inactive: 75%
8,O=C(CSCc1nc2cccnc2n1C1CCCCC1)NCc1cccc(Br)c1,inactive: 119%
9,O=C(OCc1ccccc1)c1ccc(-c2nnn(Cc3ccccc3F)n2)cc1,inactive: 65%
10,CCOc1ccc(CCNC(=O)c2ccc3[nH]c(C)c(C)c3c2)cc1,inactive: 143%
11,Cc1ccc2scc(N3CCN(c4ccccc4)CC3)c(=O)c2c1,inactive: 74%
12,O=C(C1COc2ccccc2O1)N(Cc1cccnc1)c1nc2ccc(F)cc2s1 (configuration not stated),inactive: 72%
13,N/C(=N\c1nc2c(c(=O)[nH]1)CCC2)Nc1cccc(Cl)c1,inactive: 116%
14,O=C(CSc1nc(-c2ccco2)nc2cc(=O)[nH]n12)Nc1ccccc1Cl,inactive: 45%
15,COC(=O)C1=C(C)C(c2ccccc2OC)NC(=O)N1 (configuration not stated),inactive: 115%
16,O=C(Cn1c(=O)oc2ccccc21)NCc1ccccc1Cl,inactive: 70%
17,Cc1ccc(C)c(N2CCN(CCCNC(=O)Cn3c(-c4cccs4)cc4ccccc43)CC2)c1,inactive: 71%
18,COc1ccc(-n2c(-c3ccc(F)cc3)cn3c4c(=O)n(C)c(=O)n(C)c4nc23)cc1,inactive: 63%
19,CCOc1ccc2ncc3c(-c4ccccc4)nn(CC(=O)Nc4cccc(F)c4)c3c2c1,inactive: 81%
20,Cc1nn(-c2nc3ccccc3[nH]2)c(N)c1-c1ccccc1,inactive: 81%
21,COc1ccccc1CNC(=O)Cn1c(=O)oc2ccccc21,inactive: 62%
22,CCCn1cc(S(=O)(=O)c2cccc(Cl)c2)c(=O)c2cc(F)c(N3CCN(CC)CC3)cc21,inactive: 111%

row,SMILES,survival
1,CCCCn1c(SCC(=O)N2CCCCCC2)nnc1-c1ccoc1C,inactive: 98%
2,COc1cc2[nH]c(=O)n(CCCC(=O)NCc3ccccc3Cl)c(=O)c2cc1OC,inactive: 79%
3,COCCCNC(=O)C1CCN(c2nnc(-n3cccc3CNc3ccc(C)cc3)s2)CC1,inactive: 72%
4,Cc1cc(OCCn2c(C3CC(=O)N(Cc4ccc(F)cc4)C3)nc3ccccc32)ccc1Cl (configuration not stated),active: -15%
5,O=C(CSc1nc2c(c(=O)[nH]1)CCCC2)Nc1cccc(O)c1,inactive: 80%
6,COCCCNC(=O)Cn1c(=O)n(-c2cccc(C)c2)c(=O)c2c3c(sc21)CN(C(C)=O)CC3,inactive: 76%
7,COC(=O)c1ccccc1NC(=O)CSc1nc2sc3c(c2c(=O)[nH]1)CCCC3,inactive: 70%
8,O=C(CN1C(=O)C2CCCCN2c2ccc(C(=O)N3CCCC3)cc21)NCc1ccccc1 (configuration not stated),inactive: 77%
9,COc1cccc(CNC(=O)Cn2cc3c(n2)-c2c(oc(C(=O)N4CCOCC4)c2C)CC3)c1,inactive: 85%
10,COc1ccc(S(=O)(=O)N2Cc3ccccc3CC2C(=O)Nc2cccc(C)c2)cc1OC (configuration not stated),inactive: 75%
11,CCCCn1c(CCNC(=O)c2ccc(F)cc2)nc2ccccc21,inactive: 65%
12,COc1ccccc1CNc1nc(-c2ccco2)nn1C(=O)c1ccccc1[N+](=O)[O-],inactive: 80%
13,COc1ccc(-c2cc(C(F)(F)F)nc(S(=O)(=O)CCCC(=O)Nc3ccccc3C(F)(F)F)n2)cc1OC,inactive: 89%
14,c1ccc(CCNc2ccccc2)cc1,inactive: 111%
15,CN(C)c1ccc(CNc2nc(-c3ccco3)nn2S(=O)(=O)c2ccc(Cl)cc2)cc1,inactive: 109%
16,Cc1cc(=O)n2c(C(=O)Nc3ccc(C)c(C)c3)c(C(=O)Nc3ccccc3)sc2n1,inactive: 69%
17,CCc1cccc(C)c1NC(=O)C1CCCN(S(=O)(=O)c2cccc3nsnc23)C1 (configuration not stated),inactive: 88%
18,NC(=O)C1CCCN1S(=O)(=O)c1ccc(F)cc1 (configuration not stated),inactive: 110%
19,CCN(C(=O)CSc1nnc(-c2ccc(Cl)cc2)o1)c1ccccc1,inactive: 66%
20,CC1CCCCC1NC(=O)CSc1nccc(=O)[nH]1 (configuration not stated),inactive: 96%
21,COC(=O)c1ccc(CSc2nc3c([nH]c4ccccc43)c(=O)n2-c2cccc(OC)c2)o1,inactive: 47%
